Data taken from PubChem BioAssay AID493208 (National Center for Advancing Translational Sciences (NCATS), 2011).
About 340 (0.77%) of roughly 44,000 compounds were called active. Another 5% or so got no clear call; they are omitted. Calls come from the whole dose curve; as a rule, active = well fitted inhibition curve with a large enough effect; inconclusive = small, poorly fitted or top-dose-only effect; inactive = flat fitted curve, though single readings scatter. The list shows a part of the results.

Test: Acumen qHTS Assay for Inhibitors of the mTORC1 Signaling Pathway in MEF (Tsc2-/-, p53-/-) Cells: Sytravon; note: nearly all actives have a fitted effect of over 50% in size;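 for activity change, negative = inhibition: plate controls were DMSO for no effect and rapamycin for full effect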
Conditions: phospho-rpS6 immunofluorescence/PI, 24 h; series mostly up to 38.3 µM; activity change, negative = inhibition: at the top concentration
Procedure, shortened: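 Tsc2-/-, p53-/- MEFs (empty-vector stable line) in DMEM + 10% FBS were treated with compounds 24 h at 37 degree Celsius, fixed, and immunostained for phospho-rpS6 (Alexa-488) with propidium iodide counterstain. Laser-scanning cytometry gave % positive cells, normalized against 7.5 nM rapamycin and DMSO.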
Potency is the fitted concentration of half-maximal effect.

Row | Structure (SMILES) | activity change, negative = inhibition | Potency
1 | COc1ccc(NC(=O)c2nnn(CC(=O)Nc3cc(C)cc(C)c3)c2N)c(OC)c1 | inactive: -2.2% | 
2 | CCCCC(=O)Nc1ccc(C(=O)OCc2cc(=O)n3ccsc3n2)cc1 | inactive: 3.97% | 
3 | O=S(=O)(c1ccccc1)c1nc(-c2ccco2)oc1SCc1ccc(F)cc1 | inactive: 0.552% | 
4 | Cc1ccc(NC(=O)Cn2c(=O)cc(-c3ccccc3)c3c(C)nn(C)c32)c(Cl)c1 | inactive: -5.92% | 
5 | O=C(CSc1nnc(-c2ccc(Cl)cc2)c(-c2ccc(Cl)cc2)n1)NC1CCCC1 | inactive: -7.11% | 
6 | CCOC(=O)c1sc2cccc(F)c2c1S(=O)(=O)Nc1ccccc1F | inactive: -21.8% | 
7 | Cc1ccc(C)c(NC(=O)Cn2c(=O)n(CC(=O)NCCc3ccccc3)c(=O)c3ccccc32)c1 | inactive: 2.29% | 
8 | N#Cc1ccccc1NC(=O)C(=O)NCC(c1cccnc1)N1CCc2ccccc21 (configuration not stated) | inactive: 3.28% | 
9 | O=C(Nc1cc(F)ccc1F)c1cnn2c(C(F)F)cc(-c3ccccc3)nc12 | inactive: -1.93% | 
10 | COc1cc(OC)c(NC(=O)C(C)n2nc(-c3ccc(C)cc3)c3c(c2=O)CCCC3)cc1Cl (configuration not stated) | inactive: -17.1% | 
11 | CCOCCCNC(=O)Cn1nc(CC)n2c(cc3c(OC)cccc32)c1=O | inactive: 0.473% | 
12 | COC(=O)c1ccc(NC(=O)CSc2nc3cc4ccccc4cc3[nH]2)cc1 | inactive: -13.5% | 
13 | CCOC(=O)CC(NC(=O)CCc1c(C)nc2cc(-c3ccccc3)nn2c1C)c1ccc(C)cc1 (configuration not stated) | inactive: -6.75% | 
14 | Cc1ccc(NC(=O)C2CCCN(c3ncnc4onc(C)c34)C2)cc1Cl (configuration not stated) | inactive: -9.07% | 
15 | Cc1ccc(S(=O)(=O)c2nnn3c2nc(N2CCN(c4cccc(C)c4C)CC2)c2ccccc23)cc1C | inactive: 2.79% | 
16 | COc1ccccc1-c1cc2nc(C)c(CCC(=O)NC3CCCCC3)c(C)n2n1 | inactive: 0.968% | 
17 | COc1ccc(CCNC(=O)CSc2nnc(-c3ccc(C)cc3)c(-c3ccc(C)cc3)n2)cc1OC | inactive: 10.8% | 
18 | CCCCOc1cccc(C(=O)N(Cc2ccc(Cl)cc2)C2CCS(=O)(=O)C2)c1 (configuration not stated) | inactive: -5.94% | 
19 | Cc1ccc(-c2noc(-c3ccc(NCC4CCCO4)c([N+](=O)[O-])c3)n2)cc1 (configuration not stated) | inactive: -9.43% | 
20 | COc1cccc(C2=NN(S(C)(=O)=O)C(c3cn(-c4ccccc4)nc3-c3cccs3)C2)c1 (configuration not stated) | inactive: 2.1% | 
21 | COc1ccc(CNC(=O)CN(C)c2nn3c(=O)cc(C)nc3s2)cc1 | inactive: 1.92% | 
22 | CC(=O)c1ccc(N2CCN(C(=O)CS(=O)(=O)c3cccc4nsnc34)CC2)cc1 | inactive: -16% | 
23 | CCOc1ccc(C(=O)NCCS(=O)(=O)N2CCN(c3cccc(Cl)c3)CC2)cc1 | inactive: -11.5% | 

Row | Structure (SMILES) | activity change, negative = inhibition | Potency
24 | COc1ccccc1NC(=O)N1CC=C(c2c[nH]c3ccccc23)CC1 | inactive: -5.14% | 
25 | Cc1cc(=O)[nH]c2nnc(SCCC(C)C)n12 | inactive: 0.224% | 
26 | COc1cc(C(=O)Nc2ccccc2OCc2cc(=O)n3cc(C)sc3n2)cc(OC)c1OC | inactive: -7.33% | 
27 | Cc1ccc(-c2nnc(Nc3ccc(Cl)cc3)c3ccccc23)cc1S(=O)(=O)NCC1CCCO1 (configuration not stated) | inactive: 4.83% | 
28 | O=C(c1cccc(Cl)c1)N1CCC(c2nc3c(nnn3Cc3ccc(F)cc3F)c(=O)[nH]2)CC1 | inactive: -0.436% | 
29 | COc1ccc(C(=O)c2cn(Cc3ccccc3F)c3ccc(F)cc3c2=O)cc1 | inactive: -6.64% | 
30 | Cc1cccc(NC(=O)c2oc3ccc(S(=O)(=O)N4CCCCC4)cc3c2C)c1C | inactive: 5.26% | 
31 | COc1ccc(-c2[nH]c(-c3ccc(OC)c(OC)c3)nc2SCC(=O)Nc2ccccc2)cc1 | inactive: -28.8% | 
32 | Cn1ccc2cc(S(=O)(=O)N3CCCN(C(=O)Nc4ccc(Br)cc4)CC3)ccc21 | inactive: 1.21% | 
33 | Cc1ccc(Nc2c(-c3ccc(N(C)C)cc3)nc3ccccn23)cc1 | inactive: -6.62% | 
34 | CCOc1ccccc1C(=O)N(Cc1ccc(N(C)C)cc1)Cc1ccco1 | inactive: -3.71% | 
35 | CCOC(=O)c1ccc2c(c1)N(CC(=O)Nc1cc(F)ccc1F)C(=O)c1ccccc1S2 | inactive: -0.152% | 
36 | CCOc1ccc(-c2nc3c(c(CC)nn3-c3ccccc3)c3cc(OC)c(OC)cc23)cc1 | inactive: 5.42% | 
37 | CC1=C(C(N)=O)C(c2cccc(C)c2)n2nc(-c3ccc(Cl)cc3)nc2N1 (configuration not stated) | inactive: -12.5% | 
38 | CSc1ccccc1NC(=O)C1=CC(c2ccc3c(c2)OCO3)=NS(=O)(=O)N1C | inactive: -0.821% | 
39 | COc1ccc(NC(=O)c2c(NC(=O)COc3ccc(Cl)cc3)sc3c2CCCCC3)cc1 | inactive: 13.1% | 
40 | CCN(C(=O)Cn1nc2c3cc(F)ccc3n(Cc3cccc(C)c3)cc-2c1=O)c1cccc(C)c1 | inactive: -7.8% | 
41 | CCOC(=O)CCN(Cc1ccccc1)S(=O)(=O)c1csc(C(N)=O)c1 | inactive: 10.8% | 
42 | COc1cc(OC)c(NC(=O)N2CCOc3ccc(C)cc32)cc1Cl | inactive: 9.16% | 
43 | N#Cc1cc2c(=O)n3ccccc3nc2n(-c2nnc(SCc3ccc(F)cc3)s2)c1=O | inactive: -3.1% | 
44 | Cc1ccc(C)c(NC(=O)C(=O)NCC(c2cccnc2)N2CCN(c3ccc(F)cc3)CC2)c1 (configuration not stated) | inactive: -8.51% | 
45 | CC1CN(C(=O)CCC(=O)NCc2cccs2)c2ccccc2O1 (configuration not stated) | inactive: 2.34% | 
46 | COc1cc(NC(=O)C2=C(C)Nc3nnnn3C2c2ccc(SC)cc2)c(OC)cc1Cl (configuration not stated) | inactive: -4.69% | 

Row | Structure (SMILES) | activity change, negative = inhibition | Potency
47 | Cc1ccc(S(=O)(=O)c2cn(C)c3cc(N4CCN(c5ccccc5)CC4)c(F)cc3c2=O)cc1 | inactive: -1.08% | 
48 | CCOC(=O)N1CCc2c(sc3c2c(=O)n(Cc2ccccc2)c(=O)n3Cc2cccc(Cl)c2)C1 | inactive: -15.5% | 
49 | Cc1ccc(-n2nc(C(=O)N3CCCCC3C)c(=O)n(C)c2=O)cc1 (configuration not stated) | inactive: -4.39% | 
50 | CCOc1ccccc1NC(=O)C1CCN(S(=O)(=O)c2ccc(Br)cc2)CC1 | inactive: 0.794% | 
51 | Cc1ccc2c(c1)c(=O)c1ccccc1n2CCCC(=O)Nc1ccc(F)cc1F | inactive: -2.1% | 
52 | O=C(NC1CC(=O)N(c2ccccc2)C1)C1CCCC1 (configuration not stated) | inactive: -0.492% | 
53 | CC(Sc1ncc(S(=O)(=O)c2ccc(C(C)C)cc2)c(N)n1)C(=O)Nc1ccccc1 (configuration not stated) | inactive: -8.16% | 
54 | COc1ccc(NC(=O)Cn2c(=O)n(-c3ccc(Cl)cc3)c(=O)c3c(C)c(C(=O)N(C)C)sc32)cc1Cl | inactive: -3.72% | 
55 | COC(=O)c1ccc2nc(C)cc(Nc3ccc(O)cc3)c2c1 | inactive: -11.1% | 
56 | CCOC(=O)c1cc(-c2ccc(F)cc2)n(CCC(=O)Nc2ccccc2OC)c1C | inactive: -1.06% | 
57 | Cc1ccc(CSc2nc(=O)c3c(C)cc(C)nc3n2C2CC2)cc1 | inactive: 0% | 
58 | COC(=O)c1cc(Cl)c(NC(=O)/C=C/c2ccc(Cl)cc2Cl)cc1OC | inactive: -3.22% | 
59 | Cc1cccc(C2NC(=O)c3c(sc4c3CCN(C)C4)N2)c1O (configuration not stated) | inactive: 6.79% | 
60 | CCOC(=O)c1ccc(NC2=CC(c3ccc(Br)cc3)N(c3ccc(C(=O)OCC)cc3)C2=O)cc1 (configuration not stated) | inactive: -10.5% | 
61 | Cc1cccc(Oc2nc3c(C)cccn3c(=O)c2/C=C(\C#N)c2nc3ccccc3s2)c1 | inactive: 1.52% | 
62 | CCOC(=O)c1ccc(NC(=O)C(=O)NCc2ccco2)cc1 | inactive: 0.345% | 
63 | COc1cccc(Cc2nc3ccccc3nc2SCC(=O)N2CCc3ccccc32)c1 | inactive: -3.46% | 
64 | O=S(=O)(c1ccccc1)c1nc(-c2cccc(Cl)c2)oc1NCc1ccccc1 | inactive: -8.05% | 
65 | COc1ccc(Br)c2c1-c1nc(NC(=O)c3ccccc3SC)sc1C2 | inactive: -1.16% | 
66 | COCCNC(=O)CSc1nnc(-c2ccc(OC)c(OC)c2)c(-c2ccc(OC)c(OC)c2)n1 | inactive: 0.584% | 
67 | CCOc1ccc(N2CC(c3nc4ccccc4n3CCCOc3ccc(OC)cc3)CC2=O)cc1 (configuration not stated) | inactive: -7.21% | 
68 | COc1ccccc1-c1c(C)nn2c(N3CCN(c4ccc(Cl)cc4)CC3)cc(C)nc12 | inactive: 4.93% | 
69 | CCCCOc1ccc(S(=O)(=O)Nc2cccc(-c3ccc(N4CCOCC4)nn3)c2)cc1 | inactive: -4.42% | 

Row | Structure (SMILES) | activity change, negative = inhibition | Potency
70 | CC(Sc1nc(-c2ccccc2)c(C#N)c(=O)[nH]1)C(=O)Nc1ccc(F)cc1 (configuration not stated) | inactive: -4.2% | 
71 | CCOC(=O)c1ccc(Nc2nc(C)cc(C)n2)cc1 | inactive: -1.31% | 
72 | COc1ccc(N(CC(=O)N2CCN(c3cc(C)ccc3C)CC2)S(=O)(=O)c2c(C)noc2C)cc1 | inactive: 3.46% | 
73 | CC(C)c1ccc(C2c3c(-c4ccccc4O)n[nH]c3C(=O)N2CCc2ccccc2)cc1 (configuration not stated) | inactive: 2.83% | 
74 | Cc1ccc(-n2ncc3c(NNC(=O)c4ccccc4C)ncnc32)cc1 | inactive: 10.3% | 
75 | COc1ccc(-c2c(C)nn3c(N4CCC(C(=O)NCCC(C)C)CC4)cc(C)nc23)cc1OC | inactive: -17.2% | 
76 | CC(C)CCn1c(SCc2ccc(F)cc2Cl)nc2ccsc2c1=O | inactive: -15.1% | 
77 | CC1=C(C(=O)Nc2ccccc2)C(c2ccc(C(=O)O)cc2)n2nc(SCC(=O)c3ccc(C)cc3)nc2N1 (configuration not stated) | inactive: 2.36% | 
78 | Cc1ccc(Cn2c(=O)c3c(nc4n3CCN4c3cc(C)cc(C)c3)n(C)c2=O)cc1 | inactive: 11.9% | 
79 | CCN(CC)CCn1c(=N)n(CC(O)COc2ccccc2C)c2ccccc21 (configuration not stated) |  | active: 11.7 µM
80 | CCc1ccc(-c2[nH]c3c(c2-c2c(-n4cccc4)n(C)c(=O)n(C)c2=O)c(=O)n(C)c(=O)n3C)cc1 | inactive: -8.17% | 
81 | COc1ccc(-c2nc(CCNC(=O)c3cc(OC)c(OC)c(OC)c3)cs2)cc1 | inactive: 1.95% | 
82 | COCCCNC(=O)c1ccc(NC(=O)N2CCCCc3ccccc32)cc1 | inactive: -0.833% | 
83 | COc1ccc(CNC(=O)Cc2c(C)c3c(cc(C)c4c(C)coc43)oc2=O)cc1 | inactive: 2.18% | 
84 | COc1ccc(Cl)cc1NC(=O)CCCn1c(=O)c2cccn2c2cccnc21 | inactive: -15.4% | 
85 | CCCN1CCN(CC2=C(C(=O)OCC)C(c3ccc(Cl)cc3)NC(=O)N2)CC1 (configuration not stated) | inactive: -13.1% | 
86 | CCOC(=O)N1CCc2c(sc(NCc3ccc(OC)c(Br)c3)c2C(=O)Nc2cc(OC)ccc2OC)C1 | inactive: 1.87% | 
87 | CCOC(=O)c1ccccc1NC(=O)N(Cc1ccc(C)cc1)Cc1cccn1-c1nnc(N2CCCC2=O)s1 | inactive: 1.37% | 
88 | COC(=O)c1c(NC(=O)c2ccc(S(=O)(=O)N3CCCCC3C)cc2)sc2c1CCN(C(C)C)C2 (configuration not stated) | inactive: -1.25% | 
89 | Cc1ccccc1-c1noc(CSc2nnc(Cc3ccccc3)n2-c2ccc(F)cc2)n1 | inactive: -0.515% | 
90 | COc1ccc(-c2noc(CSc3nnc(-c4ccncc4)n3-c3ccccc3)n2)cc1 | inactive: -6.84% | 
91 | CCC(C)n1c(=N)c(S(=O)(=O)c2ccc(C)cc2)cc2c(=O)n3cc(C)ccc3nc21 (configuration not stated) | inactive: -1.01% | 
92 | COc1cccc(NC(=O)Cn2c(=O)n(CCCC(=O)NCc3ccc4c(c3)OCO4)c(=O)c3ccccc32)c1 | inactive: -5.85% | 
